Measured values published in the supplement of paper PMC4967469.
IC50 is the fitted dose that halves viability relative to control wells, and lower means more sensitive; fits outside the tested doses are given as limits. AUC, from the same fit, is the share of area under the viability curve across the 256-fold dose range; the more sensitive the line, the further below 1. For some of these results: An inferred top dose is not printed in the source and was worked back from the curve model. For some of these results: Drugs with an entry number were screened twice under separate entries, and the two screens often disagree.

Columns and labels:
Assay in all cases: Viability of human cancer cell lines after 72 h of drug (GDSC screen)
JNK-9L = compound: Fc1cc(-c2ccnc(Nc3ccc(-n4cnc(N5CCOCC5)n4)cc3)n2)cc(N2CCOCC2)c1 [JNK-9L]; details: top dose 5.12 µM; top dose inferred
Description: (§1)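 Human cancer cell lines in 384-well plates, medium with 10% serum, drug for 72 h over a 256-fold dose range (nine 2-fold or five 4-fold steps up to the top dose). Adherent lines were fixed and stained with the nucleic acid dye Syto60, suspension lines read with resazurin; signal relative to control wells, capped at 0 and 100%. One two-parameter sigmoid per drug and line, fitted in a mixed model over all curves with the slope shared within a line.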

OSU-03012 = compound: NCC(=O)Nc1ccc(-n2nc(C(F)(F)F)cc2-c2ccc3c(ccc4ccccc43)c2)cc1 [OSU-03012]; details: top dose 16 µM; top dose inferred
Description: as §1

QS11 = compound: OC[C@H](Cc1ccccc1)Nc1nc(Oc2ccc3c(c2)CCC3)nc2c1ncn2Cc1ccc(-c2ccccc2)cc1 [QS11]; details: top dose 10.24 µM
Description: as §1

CUDC-101 = compound: C#Cc1cccc(Nc2ncnc3cc(OC)c(OCCCCCCC(=O)NO)cc23)c1 [CUDC-101]; details: top dose 5.12 µM; top dose inferred
Description: as §1

AC220 = compound: CC(C)(C)c1cc(NC(=O)Nc2ccc(-c3cn4c(n3)sc3cc(OCCN5CCOCC5)ccc34)cc2)no1 [AC220]; details: top dose 1.024 µM; top dose inferred
Description: as §1

5-Fluorouracil = compound: O=c1[nH]cc(F)c(=O)[nH]1 [5-Fluorouracil]; details: top dose 32 µM; top dose inferred
Description: as §1

RDEA119 = compound: COc1cc(F)c(F)c(Nc2ccc(I)cc2F)c1NS(=O)(=O)C1(C[C@H](O)CO)CC1 [RDEA119]; details: top dose 5 µM, top dose inferred
Description: as §1

| Cell Line | AUC (JNK-9L) | IC50 (JNK-9L) [nM] | AUC (OSU-03012) | IC50 (OSU-03012) [nM] | AUC (QS11) | IC50 (QS11) [nM] | AUC (CUDC-101) | IC50 (CUDC-101) [nM] | AUC (AC220) | IC50 (AC220) [nM] | AUC (5-Fluorouracil) | IC50 (5-Fluorouracil) [nM] | AUC (RDEA119; screen: GDSC drug entry 1014) | IC50 (RDEA119; screen: GDSC drug entry 1014) [nM] | AUC (RDEA119; screen: GDSC drug entry 1526) | IC50 (RDEA119; screen: GDSC drug entry 1526) [nM] |
| --- | --- | --- | --- | --- | --- | --- | --- | --- | --- | --- | --- | --- | --- | --- | --- | --- |
| ES7 (Ewing sarcoma, adherent) | 0.613 | 660 | 0.81 | 8730 | 0.866 | 9570 | 0.247 | 58.2 | 0.865 | 944 | 0.488 | 1850 | 0.982 | > 5000 | 0.967 | > 5000 |
| ES8 (Ewing sarcoma, adherent) | 0.359 |  | 0.788 | 6440 | 0.968 | > 10200 | 0.357 | 133 | 0.95 | > 1020 | 0.521 | 2260 | 0.978 | > 5000 | 0.97 | > 5000 |
| ES-2 (ovary, adherent) | 0.809 | 2290 | 0.865 | 11400 | 0.977 | > 10200 | 0.537 | 397 | 0.99 | > 1020 | 0.623 | 4160 | 0.667 | 856 | 0.844 | 2950 |
| ESS-1 (endometrium, adherent) | 0.638 | 735 | 0.653 | 2520 | 0.876 | 8390 | 0.454 | 243 | 0.971 | > 1020 | 0.713 | 7450 | 0.931 | > 5000 | 0.925 | > 5000 |
| ETK-1 (biliary tract, adherent) | 0.577 | 534 | 0.595 | 1890 | 0.848 | 9250 | 0.554 | 459 | 0.982 | > 1020 | 0.651 | 5580 | 0.81 | 3070 | 0.899 | > 5000 |
| EVSA-T (breast, adherent) | 0.742 | 1390 | 0.901 | 15500 | 0.956 | > 10200 | 0.387 | 165 | 0.985 | > 1020 | 0.902 | 31400 | 0.984 | > 5000 | 0.984 | > 5000 |
| EW-1 (Ewing sarcoma, semi-adherent) | 0.589 |  | 0.618 | 2050 | 0.877 | 8880 | 0.416 | 193 | 0.934 | > 1020 | 0.561 | 2890 | 0.978 | > 5000 | 0.982 | > 5000 |
| EW-3 (Ewing sarcoma, adherent) | 0.789 | 2620 | 0.863 | > 16000 | 0.936 | > 10200 | 0.395 | 158 | 0.928 | > 1020 | 0.763 | 13000 | 0.983 | > 5000 | 0.978 | > 5000 |
| EW-7 (Ewing sarcoma, semi-adherent) | 0.587 | 537 | 0.735 | 4240 | 0.955 | > 10200 | 0.5 | 321 | 0.873 | 784 | 0.61 | 3850 | 0.979 | > 5000 | 0.988 | > 5000 |
| EW-11 (Ewing sarcoma, adherent) | 0.649 | 936 | 0.805 | 11000 | 0.94 | > 10200 | 0.453 | 230 | 0.943 | > 1020 | 0.945 | > 32000 | 0.958 | > 5000 | 0.958 | > 5000 |
| EW-13 (Ewing sarcoma, suspension) | 0.493 | 306 | 0.63 | 2380 | 0.476 | 547 | 0.708 | 1330 | 0.969 | > 1020 | 0.641 | 5150 | 0.916 | > 5000 | 0.978 | > 5000 |
| EW-16 (Ewing sarcoma, adherent) | 0.546 | 430 | 0.51 | 1060 | 0.833 | 7040 | 0.319 | 97.4 | 0.977 | > 1020 | 0.908 | > 32000 | 0.881 | > 5000 | 0.937 | > 5000 |
| EW-18 (Ewing sarcoma, suspension) | 0.633 | 764 | 0.657 | 2820 | 0.9 | > 10200 | 0.26 | 62.2 | 0.965 | > 1020 | 0.753 | 11300 | 0.966 | > 5000 | 0.972 | > 5000 |
| EW-24 (Ewing sarcoma, semi-adherent) | 0.851 | 3210 | 0.868 | 11700 | 0.983 | > 10200 | 0.559 | 454 | 0.993 | > 1020 | 0.973 | > 32000 | 0.991 | > 5000 | 0.992 | > 5000 |
| FADU (head and neck, adherent) | 0.619 | 673 | 0.828 | 9340 | 0.988 | > 10200 | 0.665 | 904 | 0.988 | > 1020 | 0.96 | > 32000 | 0.594 | 562 |  |  |
| FTC-133 (thyroid, adherent) | 0.862 | 5100 | 0.907 | > 16000 | 0.986 | > 10200 | 0.801 | 2790 | 0.986 | > 1020 | 0.986 | > 32000 | 0.843 | 4070 | 0.917 | > 5000 |
| FU97 (stomach, adherent) | 0.583 | 543 | 0.772 | 6370 | 0.923 | > 10200 | 0.655 | 871 | 0.965 | > 1020 | 0.974 | > 32000 | 0.712 | 1260 | 0.781 | 2140 |
